{"source": "PubChem BioAssay AID2112", "about": "(National Center for Advancing Translational Sciences (NCATS), 2009)", "note": "Out of some 240,000 compounds screened, about 15 (0.006%) were called active. Inconclusive results, whose numbers are uncertain, are shown with a selection of clear calls. The call rests on the fitted dose curve; in most records, active means well fitted inhibition curve with a large enough effect; inconclusive means small, poorly fitted or top-dose-only effect, or effect the other way, or another doubt; inactive means no such curve, though single readings can be large or run the other way. Potencies of inconclusive entries are left out as doubtful fits. Potency means the concentration at half of the fitted maximal effect; tags describe the fitted curve by direction and shape.", "data": [{"target": "Lysosomal alpha-glucosidase (Homo sapiens) (UniProt P10253)", "test": "qHTS Assay for Inhibitors and Activators of Human alpha-Glucosidase From Spleen Homogenate;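 on activity change, negative = inhibition: 0% = enzyme with vehicle and -100% = no enzyme basal signal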", "conditions": "4-MU-alpha-glucoside fluorescence; series mostly up to 79.9 µM", "excerpt": "NIH Chemical Genomics Center [NCGC] NIH Molecular Libraries Probe Production Centers Network [MLPCN] MLPCN Grant: R03 MH084841-01 Assay Submitter (PI): Wei Zheng NCGC Assay Overview: Alpha-glucosidase is responsible for the hydrolysis of terminal, non-reducing 1,4-linked alpha-D-glucose residues, which releases alpha-D-glucose. It is a lysosomal hydrolase that is required for the degradation of a small percentage (1-3%) of cellular glycogen in humans. Deficiency of this enzyme results in glycogen-storage disease type II (GSDII), also referred to as Pompe disease, an autosomal recessive disorder. Structurally normal glycogen is accumulated in the lysosomes and cytoplasm in affected patients, primarily in muscle tissues. Excessive glycogen storage within lysosomes may interrupt normal functioning of other organelles and leads to cellular injury. In turn, this leads to enlargement and dysfunction of the entire organ involved (eg: cardiomyopathy and muscle weakness). It has been reported that the improper folding and trafficking of alpha-glucosidase resulting from genetic mutations may account for a significant number of Pompe patients. […] We optimized this alpha-glucosidase assay in 1536-well plate format for identification of novel small molecule inhibitors or activators with structures other than the sugar analogs in order to develop new pharmacological chaperones. In particular, this assay is directed towards discovering compounds active in a more natural setting, tissue homogenate, that may have been missed by screens of the purified enzyme under more stringent conditions.\nNCGC Assay Protocol Summary: This is a fluorogenic enzyme assay with 4-methylumbelliferyl-alpha-D-glucopyranoside as the substrate and human spleen homogenate containing alpha-glucosidase as the enzyme preparation. Upon hydrolysis of this fluorogenic substrate, the resulting product, 4-methylumbelliferone (which excites at 365 nm and emits at 440 nm) can be detected by a fluorescence plate reader. Data were normalized to the controls for basal activity (without enzyme) and 100% activity (with enzyme). The AC50 values were determined from concentration-response data modeled with the standard Hill equation. Assay buffer: 50 mM citric acid (titrated with potassium phosphate to pH 5.0), 0.01% Tween-20 (pH 5.0 is an optimal condition for this enzyme assay) 1536-well assay protocol for the alpha-glucosidase from human spleen homogenate: (1) Add 2 ul/well spleen homogenate (1 ug) (2) Add 23 nL compounds in DMSO solution. The final titration was 0.5 nM to 58 uM. (3) Add 2 ul of substrate (1 mM final) (4) Incubate at 37 C for 40 min (5) Add 2 ul stop solution (1M NaOH and 1M Glycine mixture, pH 10) (6) Detect the assay plate in a ViewLux plate reader (PerkinElmer) with Ex=365 nm and Em=440nm. Keywords: Alpha-glucosidase, Pompe Disease, pharmacological chaperone, chaperone therapy, high throughput screening, alpha-glucosidase inhibitor, MLSMR, MLSCN, NIH Roadmap, qHTS and NCGC", "values": [{"smiles": "CC(C)(C)NC(=O)NC(=O)COC(=O)Cc1coc2ccc3ccccc3c12", "Potency": "inconclusive [inhibitor, full curve, poor fit]"}, {"smiles": "C[C@H](NC(=O)N1CCc2nc(-c3ccccc3)c3c(c2C1)CO[C@@H](C)C3)c1ccccc1", "activity change, negative = inhibition": "inactive: -0.159% [at 17.4 µM]"}, {"smiles": "COCCn1c(=S)[nH]c2ccc(N(C)C)cc2c1=O", "Potency": "inactive"}, {"smiles": "Cc1cc(=O)c2c(O)c3c(O)cc(O)c4c5c(O)cc(O)c6c(O)c7c(=O)cc(C)c8c1c2c(c34)c(c65)c78", "Potency": "inactive"}, {"smiles": "Cc1cc(=O)oc2c(CN(CC(C)C)CC(C)C)c(O)ccc12", "Potency": "inconclusive [activator, partial curve]"}, {"smiles": "OC[C@@H]1[C@@H](c2ccc(Cl)cc2)C(c2cccc(Cl)c2)=NN1c1ccccc1", "Potency": "inconclusive [activator, single point]"}, {"smiles": "C[C@@H]1C(=O)O[C@H]2[C@H](O)[C@@]34[C@H]5CC(C(C)(C)C)[C@]36[C@H](OC(=O)[C@H]6O)O[C@]4(C(=O)O5)[C@@]12O", "note": "(stereo partly specified)", "Potency": "inactive"}, {"smiles": "Cc1ccc(SCC(CC(C)C)N2CCN(CCc3ccccc3)CCC2=O)cc1", "note": "(stereo unspecified)", "Potency": "inactive"}, {"smiles": "CCOC(=O)CSc1nc2ccc(N3CCOCC3)cc2c(=O)n1Cc1ccc2c(c1)OCO2", "Potency": "inactive"}, {"smiles": "Cc1cc(=O)n2ccccc2c1C#N", "Potency": "inconclusive [activator, partial curve]"}, {"smiles": "O=c1ccc2ccc(Oc3ccc([N+](=O)[O-])cc3[N+](=O)[O-])cc2o1", "Potency": "inconclusive [activator, full curve]"}, {"smiles": "Cc1c2cccn2cc[n+]1C", "Potency": "inconclusive [inhibitor, full curve, poor fit]"}, {"smiles": "COc1ccc(OC)c2c1CCC2=O", "Potency": "inconclusive [activator, single point]"}, {"smiles": "COc1ccc(Cn2ccnc2)cc1Br", "Potency": "inactive"}, {"smiles": "COc1ccc(O)c(C(=O)/C=C/c2cc3ccccc3o2)c1", "Potency": "inconclusive [inhibitor, single point]"}, {"smiles": "COc1ccc(-c2c(C#N)c(N)nc3c2CCc2ccccc2-3)cc1OC", "Potency": "inconclusive [activator, partial curve]"}, {"smiles": "Cc1ccc(NC(=S)N/N=C2/CCCc3c(C)cc(C)cc32)cc1", "Potency": "inconclusive [inhibitor, full curve, poor fit]"}, {"smiles": "CCc1cc2c3c(c(=O)oc2cc1O)CCCC3", "Potency": "inconclusive [activator, partial curve]"}, {"smiles": "COc1ccc(Cc2nnc(SCC(=O)N3CCN(c4ccccc4)CC3)o2)cc1", "Potency": "inconclusive [inhibitor, full curve, poor fit]"}, {"smiles": "CSCCC(=O)Nc1nc(-c2ccccn2)cs1", "Potency": "inconclusive [inhibitor, partial curve, poor fit]"}, {"smiles": "O=c1n(Cc2cc3c(cc2Cl)OCO3)c(=O)n2n1CC[C@H]1/C(=N\\OCc3ccccc3)[C@H]3O[C@@H]3[C@@H](O)[C@@H]12", "activity change, negative = inhibition": "inactive: 1.73% [at 17.4 µM]"}, {"smiles": "Cc1ccc(C)c(NC(=S)NNC(=O)c2ccco2)c1", "Potency": "inactive"}, {"smiles": "CC1CCN(C(=O)/C=C/c2ccc(C(C)(C)C)cc2)CC1", "Potency": "inconclusive [inhibitor, single point]"}, {"smiles": "CC(=O)Oc1ccc2c(C)cc(=O)[nH]c2c1", "Potency": "inconclusive [activator, partial curve]"}, {"smiles": "CC12C=C(/C=C/CCc3ccco3)C(C)(C1)[C@H](CCc1ccco1)CC2=O", "note": "(stereo partly specified)", "Potency": "inactive"}, {"smiles": "O=C1C2C(c3ccccc3)CC=CC2C(c2ccc3ccccc3c2)N1Cc1ccccc1", "note": "(stereo unspecified)", "Potency": "inactive"}, {"smiles": "CC[C@@H](NS(=O)(=O)c1ccc(C)cc1)C(=O)Oc1ccc2c3c(c(=O)oc2c1)CCC3", "Potency": "inconclusive [activator, single point]"}, {"smiles": "COc1ccc2cc3cc(C(=O)NC(C)C)oc3nc2c1", "Potency": "inconclusive [activator, single point]"}, {"smiles": "Cc1cc(N2CCOCC2)nc2ccc(NC(=O)CCC(=O)N3CCC4(CC3)OCCO4)cc12", "Potency": "inconclusive [activator, single point]"}, {"smiles": "Cc1c(N=Nc2c(O)[nH]c(=O)[nH]c2=O)c(=O)n(-c2ccccc2)n1C", "Potency": "inconclusive [inhibitor, partial curve]"}, {"smiles": "N#Cc1cccc(NC(=O)Nc2cccs2)c1", "Potency": "inactive"}, {"smiles": "CCOc1ccccc1N1C(=O)CC(N(O)c2ccccc2)C1=O", "note": "(stereo unspecified)", "Potency": "inactive"}, {"smiles": "Nc1ccc(-c2nc3ccc(N)cc3s2)cc1", "Potency": "inconclusive [activator, partial curve]"}, {"smiles": "CN1c2ccccc2-c2nc3ccccc3n2C1c1cccs1", "note": "(stereo unspecified)", "Potency": "inconclusive [activator, partial curve]"}, {"smiles": "Clc1ccccc1CSc1nnc(-c2ccco2)c(-c2ccco2)n1", "Potency": "inconclusive [inhibitor, full curve, poor fit]"}, {"smiles": "NC(N)=NCCC[C@@H](N)C(=O)NCC(=O)N[C@@H](CC(=O)O)C(=O)N[C@@H](Cc1c[nH]c2ccccc12)C(=O)O", "Potency": "inactive"}, {"smiles": "O=C(O)CCc1c(C(=O)O)[nH]c2cc(Cl)cc(Cl)c12", "Potency": "inactive"}, {"smiles": "C[C@@H]1C(c2cccc(Cl)c2)=NN(c2ccc(Br)cc2)[C@H]1C(=O)N1CCOC1=O", "Potency": "inconclusive [activator, single point]"}, {"smiles": "CCOC(=O)CNc1c(-c2ccc(Cl)cc2)nc2cnccn12", "Potency": "inactive"}, {"smiles": "O=C(CCCOc1ccccc1)N1CCN(c2ccccc2)CC1", "Potency": "inactive"}, {"smiles": "CC(C)=CC/C=C1\\CCC(C(=O)O)C(C(=O)O)C1", "note": "(stereo unspecified)", "Potency": "inconclusive [inhibitor, partial curve, poor fit]"}, {"smiles": "N#Cc1c(Cl)nc(Cl)c2c1CCN(Cc1ccccc1)C2", "Potency": "inconclusive [activator, partial curve]"}, {"smiles": "COc1ccc(-c2nc3cnc(N4CCN(C)CC4)nc3n(C3CC3)c2=O)cc1", "Potency": "inactive"}, {"smiles": "CCCc1cc(NCC2CCCO2)n2c(nc3ccccc32)c1C#N", "note": "(stereo unspecified)", "Potency": "inconclusive [activator, single point]"}, {"smiles": "Oc1ccc(/C=N/Nc2ccccc2)cc1", "Potency": "inactive"}, {"smiles": "O=C1[C@H]2C(c3ccccc3)=NN(c3ccccc3)[C@H]2C(=O)N1c1ccccc1", "Potency": "inconclusive [activator, single point]"}]}]}
